Measured values published in PubChem BioAssay (NCATS).
Several values for one entry are separate records, joined by “and”; a condition that tells them apart may be missing. Equal entries are not always repeated. Inconclusive results, whose numbers are uncertain, are shown with a selection of clear calls. Potencies beside an inconclusive call are fits to weak or partial responses and may not hold up. Activity calls are given as the source filed them. Unless noted, calls follow the shape of the dose curve; as a rule, active = well fitted curve in the direction sought with a large enough effect; inconclusive = small, poorly fitted or top-dose-only effect, or another doubt; inactive = no such curve, though single readings can be large; an effect the other way counts as inactive or inconclusive.

Legend:
[1] = P-glycoprotein substrates identified in KB-8-5-11 adenocarcinoma cell line, qHTS therapeutic library screen (AID 1346987); also: nearly all actives have a fitted effect of over 65% in size; as to activity change, negative = cytotoxicity: % is scaled to controls: 0 for no effect and ±100 for the full control effect
In short: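 Steps: plate 500 KB-8-5-11 cells/well in DMEM + 10% FCS (colchicine removed); pin compounds in dose-response; incubate 72 h, 37 degree C, 5% CO2; add CellTiter-Glo, 5 min; read luminescence.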

HEK293 = test: Cytotoxic Profiling of Annotated Libraries Using Quantitative High-Throughput Screening (AID 1296008); conditions: Five cell lines viability, CellTiter-Glo ATP luminescence, 48-72 h; max response: active compounds read low; also: nearly all actives have a fitted effect of over 60% in size; as to max response: % is scaled to controls: 0 for no effect and ±100 for the full control effect
In short: (§1)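 Cytotoxicity was measured as CellTiter-Glo ATP luminescence, read after 10 min at room temperature. Compound treatment of the cells lasted 48 or 72 hr at 37 degrees Celsius in a qHTS format.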

NIH3T3 = test: as above; conditions: Five cell lines viability, CellTiter-Glo ATP luminescence, 48-72 h; max response: active compounds read low
In short: as §1

[2] = target: Cytochrome P450 2D6 (Homo sapiens) (UniProt P10635); test: Cytochrome P450 family 2 subfamily D member 6 (CYP2D6) small molecule antagonists: luciferase biochemical (cell-free) qHTS assay (AID 1645840; active = well fitted curve in the direction sought with a large enough effect in the repeat runs; inconclusive = weak or mixed curves; inactive = no such curve, though single readings can be large; an effect the other way counts as inactive or inconclusive; also: nearly all actives have a fitted effect of over 55% in size)
UniProt P10635, sequence (P10635 whole entry, looked up): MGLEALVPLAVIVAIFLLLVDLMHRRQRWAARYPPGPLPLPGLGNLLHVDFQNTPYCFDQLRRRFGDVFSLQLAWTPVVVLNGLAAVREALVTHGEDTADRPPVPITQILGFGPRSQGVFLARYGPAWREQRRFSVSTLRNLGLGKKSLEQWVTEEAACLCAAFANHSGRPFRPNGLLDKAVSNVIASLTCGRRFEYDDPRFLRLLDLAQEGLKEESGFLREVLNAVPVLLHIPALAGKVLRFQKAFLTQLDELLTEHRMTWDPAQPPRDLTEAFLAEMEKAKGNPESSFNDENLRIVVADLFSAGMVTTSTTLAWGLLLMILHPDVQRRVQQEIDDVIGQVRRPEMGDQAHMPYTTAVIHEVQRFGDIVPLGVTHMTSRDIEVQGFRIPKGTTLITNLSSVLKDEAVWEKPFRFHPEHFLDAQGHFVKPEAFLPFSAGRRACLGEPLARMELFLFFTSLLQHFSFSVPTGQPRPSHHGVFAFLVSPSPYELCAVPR
In short: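 P450-Glo luminescent screen: recombinant CYP2D6 enzyme–proluciferin substrate mix preincubated with compound 10 min at room temperature, then NADPH regeneration added for 1 h at room temperature. Detection reagent added for 20 min; luciferin light read as relative luminescence units.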

[3] = Primary qHTS for inhibitors of nuclear receptor binding SET domain protein 2 (NSD2) in an isogenic RCH-ACV NSD2 p.E1099K mutant (9B) (AID 1645876); also: nearly all actives have a fitted effect of over 70% in size
[4] = Primary qHTS for inhibitors of nuclear receptor binding SET domain protein 2 (NSD2) in an RCH-ACV wild type WT cells (2C) (AID 1645877); conditions: activity change, negative = cell killing: at 44.9 µM (top of the series); also: nearly all actives have a fitted effect of over 70% in size
[5] = Primary fluorescence-based thiol-reactive (MSTI) qHTS assay for identification of artifact compounds. (AID 1845221);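 also: thiol-reactive compounds lower the probe fluorescence signal; nearly all actives have a fitted effect of over 65% in size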
In short: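 A multi-concentration qHTS design tested compounds against 4 uM MSTI, pH 7.4 phosphate-buffered saline. Plates were protected from light for 1 h at room temperature before imaging fluorescence.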

[6] = Primary redox qHTS assay for identification of artifact compounds. (AID 1845223)
In short: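 Amplex Red (25 uM) and HRP (250 mU/mL) in HBSS, with compounds for 15 min, then 250 uM DTT for 30 min, room temperature, dark. Fluorescence 525/598 nm read; normalized to DMSO and 10 uM DA3003; Hill fit.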

CASKI = test: Primary qHTS to identify gynecologic anti-cancer compounds using libraries of approved drugs and bioactive compounds (AID 1345084); conditions: Gynecologic cancer cell panel viability, ATPlite luminescence, 48 h; activity change, negative = cytotoxicity: at 57.5 µM (top of the series); also: nearly all actives have a fitted effect of over 55% in size; as to activity change, negative = cytotoxicity: % is scaled to controls: 0 for no effect and ±100 for the full control effect
In short: (§2)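 ATP-based viability (ATPlite), 1,000 cells/well, 16 h pre-incubation, 48 h compound at 37 C, 5% CO2, 15 min RT before read.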

OV90 = test: as above; conditions: Gynecologic cancer cell panel viability, ATPlite luminescence, 48 h; series mostly up to 57.5 µM
In short: as §2

PA-1 = test: as above; conditions: Gynecologic cancer cell panel viability, ATPlite luminescence, 48 h; series mostly up to 57.5 µM
In short: as §2

Tov-21-G = test: as above; conditions: Gynecologic cancer cell panel viability, ATPlite luminescence, 48 h; activity change, negative = cytotoxicity: at 57.5 µM (top of the series)
In short: as §2

SKOV3 = test: as above; conditions: Gynecologic cancer cell panel viability, ATPlite luminescence, 48 h; series mostly up to 57.5 µM
In short: as §2

[7] = tested on: Zika virus NS2B-NS3 protease (unlinked complex); test: Primary screen GU Rhodamine qHTS for Zika virus inhibitors: Unlinked NS2B-NS3 protease assay (AID 1347159); also: nearly all actives have a fitted effect of over 60% in size
In short: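 Percent inhibition derives from the 15-min fluorescence change (ex 480, em 540 nm), normalized to no-enzyme and no-inhibitor wells. Reactions contained 25 nM NS2B-NS3 complex and 1.5 microM substrate in 10 mM Tris-HCl pH 8.0.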

C33A = test: Primary qHTS to identify gynecologic anti-cancer compounds using libraries of approved drugs and bioactive compounds (AID 1345084); conditions: Gynecologic cancer cell panel viability, ATPlite luminescence, 48 h; series mostly up to 57.5 µM; also: nearly all actives have a fitted effect of over 55% in size; as to activity change, negative = cytotoxicity: % is scaled to controls: 0 for no effect and ±100 for the full control effect
In short: as §2

CAOV3 = test: as above; conditions: Gynecologic cancer cell panel viability, ATPlite luminescence, 48 h; series mostly up to 57.5 µM
In short: as §2

Hek293T = test: as above; conditions: Gynecologic cancer cell panel viability, ATPlite luminescence, 48 h, control line for the selectivity index; series mostly up to 57.5 µM
In short: as §2

JEG-3 = test: as above; conditions: Gynecologic cancer cell panel viability, ATPlite luminescence, 48 h; series mostly up to 57.5 µM
In short: as §2
Potency is read from the fitted curve at half-maximal effect; tags tell the direction and shape of the fitted curve.

NC(N)=NS(=O)(=O)c1ccc(N)cc1
inactive: Potency [1] | max response (HEK293) -6.28% | outcome (NIH3T3)

CC1(C)O[C@]23C[C@H]1C[C@H](OC(=O)c1ccoc1)[C@]2(C)[C@@H](OC(=O)c1ccoc1)CCC3(C)O (stereo partly specified)
inactive: outcome (HEK293) | max response (NIH3T3) -0.102%

COC(=O)[C@H]1[C@H]2C[C@@H]3c4[nH]c5cc(OC)ccc5c4CCN3C[C@H]2C[C@@H](OC(=O)c2cc(OC)c(OC)c(OC)c2)[C@@H]1OC
inconclusive: Potency [3] 29.9 µM [inhibitor, single point] | Potency [4] 29.9 µM [inhibitor, single point] | Potency [5] 0.63 µM [inhibitor, full curve] | Potency [6] 8.9 µM [activator, partial curve, poor fit] | Potency (HEK293) 33.5 µM [inhibitor, single point] and 6.11 µM [inhibitor, single point]
inactive: max response (NIH3T3) -3.91% and -6.42% | Potency (CASKI)
active: Potency [2] 15.5 µM

COC1=CC(=O)C[C@@H](C)[C@]12Oc1c(Cl)c(OC)cc(OC)c1C2=O
inactive: Potency (OV90)
inconclusive: Potency [1] 29.1 µM [inhibitor, single point] | Potency [3] 29.9 µM [inhibitor, single point] | Potency [4] 33.5 µM [inhibitor, single point] | Potency (HEK293) 33.5 µM [inhibitor, single point] | Potency (NIH3T3) 29.9 µM [inhibitor, single point] | Potency (PA-1) 39.8 µM [cytotoxic, single point] | Potency (Tov-21-G) 35.5 µM [cytotoxic, single point]

CC(C)(C)c1nnc(NS(=O)(=O)c2ccccc2)s1
inactive: outcome (HEK293) | max response (NIH3T3) 1.08%

CC(C)(c1ccc(O)cc1)c1ccc(O)cc1
inconclusive: Potency [1] 56.2 µM [inhibitor, single point] | Potency [3] 35.1 µM [inhibitor, single point] | Potency [4] 35.1 µM [inhibitor, single point] | Potency (HEK293) 44.2 µM [inhibitor, single point] | Potency (NIH3T3) 70 µM [inhibitor, single point] | Potency (OV90) 70.8 µM [cytotoxic, single point]

CCCCOc1ccc(OCCCN2CCOCC2)cc1
inactive: Potency (SKOV3)
inconclusive: Potency [1] 12.4 µM [inhibitor, single point] | Potency [3] 23.7 µM [inhibitor, single point] | Potency [4] 29.9 µM [inhibitor, single point] | Potency (HEK293) 26.6 µM [inhibitor, single point] | Potency (NIH3T3) 33.5 µM [inhibitor, partial curve, poor fit]

O=C1OC(CN2CCOCC2)CN1/N=C/c1ccc([N+](=O)[O-])o1 (stereo unspecified)
inconclusive: Potency [2] 15.5 µM [inhibitor, partial curve] | Potency [3] 21.1 µM [inhibitor, single point] | Potency [4] 23.7 µM [inhibitor, partial curve, poor fit] | Potency (HEK293) 33.5 µM [inhibitor, single point] | Potency (OV90) 39.8 µM [cytotoxic, single point]
inactive: max response (NIH3T3) -5.18% | Potency (Tov-21-G)

CN(C)C(=O)COC(=O)c1cc(-c2ccc(C3CCNCC3)cc2)c2ccc(-c3ccc(C(F)(F)F)cc3)cc2c1
active: Potency [1] 18.4 µM | Potency (HEK293) 4.61 µM
inconclusive: Potency [7] 70.8 µM [inhibitor, single point] | Potency (NIH3T3) 29.1 µM [inhibitor, single point] | Potency (C33A) 31.6 µM [cytotoxic, single point] | Potency (CAOV3) 20 µM [cytotoxic, partial curve, poor fit] | Potency (CASKI) 39.8 µM [cytotoxic, single point] | Potency (OV90) 35.5 µM [cytotoxic, single point] | Potency (PA-1) 25.1 µM [cytotoxic, single point] | Potency (SKOV3) 25.1 µM [cytotoxic, single point] | Potency (Tov-21-G) 35.5 µM [cytotoxic, single point]

Cn1ncc(Cl)c1-c1cc(C(=O)N[C@H](CN)Cc2ccc(F)c(F)c2)sc1Cl
inconclusive: Potency [1] 20.6 µM [inhibitor, single point] | Potency [2] 8.49 µM [inhibitor, partial curve, poor fit] | Potency (NIH3T3) 29.1 µM [inhibitor, single point] | Potency (CASKI) 10 µM [cytotoxic, partial curve] | Potency (Hek293T) 6.31 µM [cytotoxic, full curve] | Potency (OV90) 5.01 µM [cytotoxic, partial curve, poor fit]
active: Potency (HEK293) 1.3 µM | Potency (C33A) 5.62 µM | Potency (SKOV3) 14.1 µM | Potency (Tov-21-G) 0.891 µM

O=C(NCCCNC(=O)c1ccc[nH]c1=O)c1cc(-c2ccccc2)on1
inconclusive: Potency (HEK293) 18.4 µM [inhibitor, single point] | Potency (CAOV3) 22.4 µM [cytotoxic, single point] | Potency (Hek293T) 12.6 µM [cytotoxic, partial curve] | Potency (JEG-3) 14.1 µM [cytotoxic, partial curve, poor fit] | Potency (OV90) 3.55 µM [cytotoxic, full curve] | Potency (Tov-21-G) 7.94 µM [cytotoxic, partial curve]
inactive: max response (NIH3T3) 2.72%
active: Potency [3] 8.33 µM

O=C(Nc1ccccc1C(=O)Nc1ccc(CCO)cc1)c1ccc([N+](=O)[O-])cc1
inactive: outcome (NIH3T3) | Potency (CAOV3) | Potency (OV90) | Potency (SKOV3)
inconclusive: Potency [2] 9.52 µM [inhibitor, partial curve, poor fit] | Potency [3] 23 µM [inhibitor, partial curve] | Potency [4] 23 µM [inhibitor, partial curve] | Potency [5] 2.38 µM [inhibitor, full curve] | Potency (HEK293) 23.1 µM [inhibitor, single point]

COc1ccc2cc3c(NC(=O)c4ccco4)nn(C)c3nc2c1
inconclusive: Potency [2] 21.3 µM [inhibitor, single point] | Potency [3] 12.9 µM [inhibitor, partial curve] | Potency [4] 9.16 µM [inhibitor, partial curve] | Potency (HEK293) 2.59 µM [inhibitor, full curve] | Potency (NIH3T3) 0.259 µM [inhibitor, full curve, poor fit] | Potency (CAOV3) 39.8 µM [cytotoxic, single point] | Potency (OV90) 22.4 µM [cytotoxic, partial curve, poor fit] | Potency (SKOV3) 31.6 µM [cytotoxic, single point]
inactive: Potency [6]

CC(C)=CCCC1(C)Oc2cc3c(c4c2C2C(O4)C(C)(O)CCC21)CN(C(CCC(=O)O)C(=O)O)C3=O (stereo unspecified)
inactive: outcome (HEK293) | outcome (NIH3T3) | Potency (CAOV3) | Potency (JEG-3)

Cc1cnn(-c2ccccc2)c1NC(=O)COCc1ccccc1
inactive: Potency (C33A)
inconclusive: Potency [3] 23 µM [inhibitor, partial curve] | Potency [4] 25.8 µM [inhibitor, partial curve, poor fit] | Potency (HEK293) 23.1 µM [inhibitor, single point] | Potency (NIH3T3) 6.51 µM [inhibitor, single point]

COC1CC(=O)C23C(=O)NC(CC(C)C)C2C(C)C(C)=CC3/C=C(\C)CCC(O)C1O (stereo unspecified)
inconclusive: Potency [1] 14.2 µM [inhibitor, single point] | Potency (HEK293) 12.6 µM [inhibitor, single point] | Potency (NIH3T3) 14.2 µM [inhibitor, single point] | Potency (C33A) 10 µM [cytotoxic, single point] | Potency (CAOV3) 7.94 µM [cytotoxic, partial curve] | Potency (PA-1) 10 µM [cytotoxic, partial curve, poor fit]
active: Potency [4] 2.24 µM
inactive: Potency [5]

O=C(NCCN1CCC(n2c(=O)[nH]c3ccccc32)CC1)c1cc2cc(F)ccc2[nH]1
inconclusive: Potency [3] 29 µM [inhibitor, single point] | Potency [4] 25.8 µM [inhibitor, single point] | Potency (HEK293) 29.1 µM [inhibitor, single point]
inactive: Potency [5] | outcome (NIH3T3) | Potency (CAOV3) | Potency (OV90)

Cc1onc(-c2ccccc2)c1C(=O)N[C@@H]1C(=O)N2[C@@H]1SC(C)(C)[C@@H]2C(=O)O
inactive: max response (HEK293) 3.77% and -1.97% | Potency (CAOV3)
inconclusive: Potency (NIH3T3) 32.6 µM [inhibitor, partial curve, poor fit] | Potency (PA-1) 3.98 µM [cytotoxic, single point]

CCO[C@H]1CN(C2CCC(O)(c3ccc4c(c3)OCO4)CC2)C[C@@H]1NC(=O)CNC(=O)c1cccc(C(F)(F)F)c1 (stereo partly specified)
inconclusive: Potency [4] 32.5 µM [inhibitor, partial curve, poor fit] | Potency (HEK293) 20.6 µM [inhibitor, single point] | Potency (NIH3T3) 4.11 µM [inhibitor, single point] | Potency (CAOV3) 28.2 µM [rising, single point] | Potency (SKOV3) 39.8 µM [rising, single point]

C=C1CC[C@H](O)CC1=C/C=C1\CCC[C@]2(C)[C@@H]([C@H](C)/C=C/[C@H](C)C(C)C)CC[C@@H]12
inactive: Potency [1] | Potency (C33A) | Potency (SKOV3) | Potency (Tov-21-G)
active: Potency [7] 11.2 µM
inconclusive: Potency [3] 18.3 µM [inhibitor, single point] | Potency [6] 26.7 µM [activator, partial curve, poor fit] | Potency (HEK293) 29.1 µM [inhibitor, single point] | Potency (NIH3T3) 5.8 µM [inhibitor, full curve]
